Measurements as given in PubChem BioAssay AID463173 (ICCB-Longwood Screening Facility, Harvard Medical School, 2010).
In all, about 52,000 compounds went through this assay and about 1,700 (3.3%) were called active. Rule as the data show it: active = survival mostly below about 52% (no sharp cut-off); inactive = mostly above about 56%. The list shows a part of the results.

These molecules were tested on Wild type (assay: growth inhibition of S. aureus wild type versus tarO mutant, primary screen, teichoic acid synthesis inhibitors, RN4220, OD600 (AID 463173)). Conditions: S. aureus RN4220 wild type/DeltatarO growth, OD600, 18 h, active compounds read low, screened at 18.75 µg/mL (by protocol).

Structure (SMILES) | survival
CC(=O)Nc1ccccc1-c1nc2cc(C#N)c(C#N)cc2[nH]c1=O | inactive: 108%
O=C(CC1N=C2c3ccccc3N=C(SCc3ccc(F)cc3)N2C1=O)NCc1cccs1 (stereo not given) | inactive: 132%
COc1ccc2c(c1)CCc1c(C(=O)Nc3ccccc3C(F)(F)F)noc1-2 | inactive: 145%
CCN(CC)C(=O)CN1CCN(c2cccc(Cl)c2)CC1 | inactive: 109%
COc1cccc(CNC(=O)Cn2cc3c(n2)-c2c(oc(C(=O)N4CCCC4)c2C)CC3)c1 | inactive: 86%
CCc1ccc(NC(=O)Cn2ncc3c4ccccc4n(C)c3c2=O)cc1 | inactive: 89%
CCn1c(SCC(=O)c2ccc([N+](=O)[O-])cc2)nnc1-c1ccc(Cl)cc1 | inactive: 69%
CCOC(=O)c1scc(-c2ccc(C)cc2)c1S(=O)(=O)Nc1cc(Cl)ccc1OC | active: -6%
CC(C)Oc1ccc(C2CC(=O)N(C)C2=O)cc1 (stereo not given) | inactive: 115%
CCCCn1cc(S(=O)(=O)c2ccc(OC)cc2)c(=O)c2cc(F)c(F)cc21 | inactive: 84%
COC(=O)Cn1c(CN2CCN(c3ccc(OC)cc3)CC2)nc2c1c(=O)[nH]c(=O)n2C | inactive: 79%
CCOc1ccc(NC(=O)c2cc(S(=O)(=O)NC3CCCC3)ccc2F)cc1 | inactive: 68%
CCOC(=O)c1c(S(=O)(=O)NCC(=O)Nc2cccc(CC)c2)c(C)n(C)c1C | inactive: 69%
CCc1ccc(NC(=O)CSc2nc(-c3ccccc3)c(C#N)c(=O)[nH]2)cc1 | inactive: 95%
Clc1cccc(-c2csc(-c3nc(-c4ccc(Br)s4)cs3)n2)c1 | inactive: 76%
CCN(CC)C(=O)c1sc2c(c1C)c(=O)n(-c1ccccc1)c(=O)n2Cc1cc(=O)n2ccccc2n1 | inactive: 60%
CC(C)(C)NC(=O)C1N(C2CC2)C(=O)C2C(C(=O)NCc3ccccc3)C3C=CC21O3 (stereo not given) | inactive: 103%
COc1ccc(NC(=O)c2ccc3c(c2)c(C)c(C)n3Cc2ccc(F)cc2)c(OC)c1 | inactive: 59%
COc1ccc(C2=Nn3c(nc4sc(C(=O)Nc5cccc(C)c5)c(C)c4c3=O)SC2)cc1 | inactive: 111%
COc1ccc(-c2nn3c(-c4ccc(C)cc4)nnc3c3ccccc23)cc1 | inactive: 70%
COc1cccc(CN2C(=O)c3ccccc3Sc3ccc(C(=O)NCCc4ccc(Cl)cc4)cc32)c1 | inactive: 89%
COc1ccc(NC(=O)c2cc3c([nH]c2=O)CC(c2ccccc2)CC3=O)cc1 (stereo not given) | inactive: 63%
CCCOc1ccc(OC(=O)c2c(-c3ccccc3Cl)noc2C)cc1 | inactive: 72%
COc1ccc(NC(=O)Cn2c(=O)n(-c3ccc(CC(=O)NCC4CCCO4)cc3)c(=O)c3ccccc32)c(OC)c1 (stereo not given) | inactive: 90%
O=C(Nc1nccs1)c1cccc(C(=O)Nc2nccs2)c1 | inactive: 123%
CCc1ccc(OCC(=O)N(Cc2ccco2)Cc2ccco2)cc1 | inactive: 63%
Cc1cc(C)cc(OCc2cc(=O)n3cc(C)sc3n2)c1 | inactive: 67%
COc1cc(NC(=O)c2ccco2)c(OC)cc1NC(=O)CSc1ncc(-c2ccc(F)cc2)[nH]1 | inactive: 103%

Structure (SMILES) | survival
COc1ccccc1NC(=O)CCn1nc(-c2ccccc2)c2ccccc2c1=O | active: 4%
O=C(C1CCN(c2nc3ccccc3[nH]2)CC1)N1CCN(c2ccccc2)CC1 | inactive: 85%
Cc1cc2c(cc1C)C(C)CC(C)(C)N2 (stereo not given) | inactive: 118%
CCOC(=O)c1c(C)n(-c2ccccc2)c2ccc(OC(=O)c3ccc(OCC)c(OCC)c3)cc12 | inactive: 134%
Cc1cccc(-c2noc(-c3ccc(NCC4CCCO4)c([N+](=O)[O-])c3)n2)c1 (stereo not given) | inactive: 113%
Cc1cccc(NCc2nnc3n2CCCCC3)c1C | inactive: 70%
CCCN1CCN(CCCNC(=O)c2ccc3c(c2)sc2nc(-c4ccc(C)cc4)cn23)CC1 | inactive: 20%
CN(C(=O)c1ccc2c(c1)N(Cc1ccccc1F)C(=O)c1ccccc1S2)C1CCCCC1 | inactive: 70%
COc1ccccc1N1CCN(c2nc3ccc(C)cc3nc2-n2nc(C)cc2C)CC1 | active: 0%
O=C(Nc1c(C(=O)N2CCC(N3CCCCC3)CC2)oc2ccccc12)c1c(F)cccc1F | inactive: 73%
Cc1ccc(-c2nnc(Nc3ccc(Cl)cc3)c3ccccc23)cc1S(=O)(=O)N1CCOCC1 | inactive: 85%
CN(C)S(=O)(=O)c1ccc2c(c1)N(CC(=O)N1CCCCC1)CCS2 | inactive: 64%
Cn1cc(S(=O)(=O)c2ccccc2)c(=O)c2cc(F)c(N3CCN(c4ccc(F)cc4)CC3)cc21 | inactive: 119%
CC(=O)Nc1ccc(NC(=O)C(Cc2ccccc2)N2Cc3ccccc3C2=O)cc1 (stereo not given) | inactive: 72%
Cc1cccc(N2CCN(C(=O)c3c(C)oc4nc(C)nc(N5CCCC5)c34)CC2C)c1 (stereo not given) | inactive: 69%
Cc1ccc(NC(=O)Cn2c(=O)n(CCC(=O)NCCc3ccccc3)c(=O)c3ccccc32)cc1 | inactive: 69%
O=C(Cn1cnc(S(=O)(=O)N2CCCC2)c1)Nc1ccccc1 | inactive: 126%
COc1ccc(CNC(=O)CCc2nc3cccnc3n2Cc2ccccc2)cc1 | inactive: 119%
CCOc1ccc(CCNC(=O)C(C)n2nc(C)n3c(cc4occc43)c2=O)cc1OCC (stereo not given) | inactive: 80%
Cc1ccc(Cl)cc1N1CCN(C(=O)c2cn(C)c3ccc(S(=O)(=O)N(C)C4CCCCC4)cc3c2=O)CC1 | inactive: 129%
COc1cccc(-n2c(SCC(=O)N3CCCCC3)nc3c([nH]c4ccccc43)c2=O)c1 | active: -3%
CC1CCC(N2CC(=O)N(C3CCCC3)C(c3ccc(Cl)cc3)C2=O)CC1 (stereo not given) | inactive: 71%
Cc1ccc(C)c(CN2C(=O)c3ccccc3Sc3ccc(C(=O)NCc4cccs4)cc32)c1 | inactive: 76%
CC(=O)c1cccc(NC(=O)c2noc3c2CSc2ccccc2-3)c1 | inactive: 88%
COc1ccc(NC(=O)c2c(N)c(C(=O)c3ccc(C)cc3)n3ccccc23)cc1OC | inactive: 98%
Cc1ccc(C)c(NC(=O)C2CCN(c3nn4c(=O)cc(C)nc4s3)CC2)c1 | inactive: 96%
CCN1CCN(Cc2nc3cc(NC(=O)c4ccccc4[N+](=O)[O-])ccc3n2CC)CC1 | inactive: 86%
